The campaign covered roughly 310,000 compounds. About 18,000 (5.8%) were called active. Inconclusive means that the source gave no clear call. Such entries were picked first, then a sample of the others. Calls follow the shape of the dose curve; as a rule, active = well fitted inhibition curve with a large enough effect; inconclusive = small, poorly fitted or top-dose-only effect, or another doubt; inactive = no such curve, though single readings can be large or run the other way. Potencies of inconclusive entries are left out as doubtful fits.
Test: Primary qHTS for delayed death inhibitors of the malarial parasite plastid, 48 hour incubation
Settings: P. falciparum luciferase growth in erythrocytes; series mostly up to 28.7 µM; activity change, negative = inhibition: at the top concentration
How it was run: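 Cell-based growth assay: transgenic P. falciparum expressing firefly luciferase, cultured in red cells within RPMI 1640 containing 0.5% w/v Albumax, 24 mM bicarbonate and gentamycin. A drop in luciferase activity indicates inhibition.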
% is scaled to controls: 0 for no effect and ±100 for the full control effect; potency is read from the fitted curve at half-maximal effect; tags tell the direction and shape of the fitted curve.

SMILES	Potency	activity change, negative = inhibition
COc1ccc2oc(C(=O)N(CC(C)C)C3CCS(=O)(=O)C3)c(C)c2c1 (centres undefined)	inconclusive [inhibitor, partial curve, poor fit]	
Cc1c(CCC(=O)N2CCC(C(=O)O)CC2)c(=O)oc2cc3oc4c(c3cc12)CCCC4	inconclusive [inhibitor, single point]	
Cc1ccccc1OCCNc1cc(N2CCNCC2)ccc1[N+](=O)[O-]	inconclusive [inhibitor, single point]	
CC1C(=O)NN=C1C(=O)N/N=C\c1ccc(O)cc1O (centres undefined)	inconclusive [inhibitor, single point]	
Cc1ccc(OCc2nnc(SCC(=O)C(C)(C)C)n2Cc2ccco2)cc1	inconclusive [inhibitor, partial curve, poor fit]	
Cc1ccccc1NC(=S)N1CCN(Cc2ccccc2)CC1		inactive: 4.56%
COc1cc(C2c3c(-c4cc(Cl)c(C)cc4O)n[nH]c3C(=O)N2Cc2cccnc2)ccc1O (centres undefined)	active: 8.28 µM	
Cc1c(OC(C)C(=O)NC2CC(C)(C)NC(C)(C)C2)ccc2c3c(c(=O)oc12)CCC3 (centres undefined)	inconclusive [inhibitor, full curve]	
CC(C)CN(C(=O)COC(=O)c1cnccn1)c1c(N)n(Cc2ccccc2)c(=O)[nH]c1=O	inconclusive [inhibitor, partial curve, poor fit]	
CCOc1ccccc1C(=O)N[C@H](C(=O)Nc1ccc(OC)c(S(=O)(=O)N2CCOCC2)c1)C(C)C	active: 13.1 µM	
Cn1c2cc(B(O)O)sc2c2cnn(Cc3ccc(F)cc3F)c(=O)c21	inconclusive [inhibitor, single point]	
Cc1ccc(NC(=S)N2CCCCCC2)cc1		inactive: 34.7%
COc1ccc(-n2nnnc2CNC(=O)c2ccc3ccccc3c2)cc1	inconclusive [inhibitor, partial curve, poor fit]	
CCOC(=O)c1cc(NC(=O)CN2CCCC2)cc(C(=O)OCC)c1		inactive: -14.6%
O=C(C[n+]1cccc2ccccc21)c1ccc([N+](=O)[O-])cc1	inconclusive [inhibitor, single point]	
Cn1c(/C=C/c2ccccc2[N+](=O)[O-])nc2ccccc2c1=O		inactive: -17.7%
CC(NC(=O)c1cc([N+](=O)[O-])cc([N+](=O)[O-])c1)c1ccc(-n2ccnc2)cc1 (centres undefined)	active: 1.47 µM	
O=C(CSc1nnnn1C1CCCC1)Nc1cccc(NC(=O)c2ccco2)c1		inactive: -13.5%
CCCc1[nH]nc2c1C(C1CCCCC1)C(C#N)=C(N)O2 (centres undefined)	inconclusive [inhibitor, partial curve]	
Cc1onc(-c2ccccc2)c1C(=O)OCC(=O)NC(=O)c1ccccc1	inconclusive [inhibitor, single point]	
Cc1ccc(NC(=O)C(C)Oc2ccccc2)cc1S(=O)(=O)N1CCCCCC1 (centres undefined)	active: 6.57 µM	
N#Cc1cnn2c(C(F)(F)F)cc(-c3ccccc3)nc12	active: 10.4 µM	
COc1ccc(NC(=O)CSc2nnc(-c3cccnc3)s2)cc1		inactive: 10.9%

SMILES	Potency	activity change, negative = inhibition
C=CCN(Cc1ccc(Cl)s1)C(=O)c1cc(S(=O)(=O)N2CCOCC2)ccc1F	active: 13.1 µM	
COc1cc(C=O)ccc1OC(=O)N1CCOCC1	inconclusive [inhibitor, single point]	
Cc1c(C(=O)N2CCN(Cc3ccccc3)CC2)oc2c1C(=O)CC(C)(C)C2	inconclusive [inhibitor, single point]	
CCN(CC)CCNC(=O)c1ccc2c(=O)n(C3CCCC3)c(=S)[nH]c2c1	active: 2.33 µM	
Cc1ccc(NC(=O)C2(S(=O)(=O)c3ccc(Cl)cc3)CC2)c(Br)c1	inconclusive [inhibitor, partial curve, poor fit]	
CCOc1ccccc1C(=O)Nc1ccc2nc3n(c(=O)c2c1)CCCCC3	inconclusive [inhibitor, partial curve]	
CN1c2ccccc2Oc2nnc(N3CCN(Cc4ccccc4)CC3)cc21	inconclusive [inhibitor, single point]	
COc1ccc(-c2noc(N3CCC(C(=O)Nc4ccccc4OC)CC3)n2)cc1	inconclusive [inhibitor, single point]	
CCOc1ccc(CN(C)C(=O)CN2C(=O)NC3(CCCc4ccccc43)C2=O)cc1 (centres undefined)	inconclusive [inhibitor, partial curve]	
Cc1nc(C)c(C(=O)OC(C)C(=O)Nc2ccc(F)cc2)s1 (centres undefined)	inconclusive [inhibitor, single point]	
O=C(c1ccccc1)N(Cc1cccnc1)C1(C(=O)Nc2ccccc2)CCCCC1	inconclusive [inhibitor, single point]	
COC(=O)c1ccccc1NC(=O)N1c2ccccc2Sc2ccccc21	inconclusive [inhibitor, single point]	
CCC(C)Nc1nnnc2c1sc1nc3c(cc12)COC(C)(C)C3 (centres undefined)	inconclusive [inhibitor, single point]	
COC(=O)C1=C(C)N(C)C(C)=C(C(=O)OC)C1c1ccc(F)c(Br)c1	active: 9.28 µM	
Cc1ccc(NC(=O)NC(=O)COc2ccccc2C(N)=O)c(C)c1		inactive: 21.2%
C#CCOCCOCCOCCNc1nc(N2CCN(C(=O)[C@H]([C@@H](C)CC)n3cc([C@@H](N)Cc4ccc(O)cc4)nn3)CC2)nc(N2CCN(C(=O)[C@H](Cc3cc4ccccc4[nH]3)n3cc([C@@H](N)C(C)CC)nn3)CC2)n1 (some centres undefined)	inconclusive [inhibitor, partial curve]	
Cc1cccc(N2CC(O)(c3cccs3)[N+]3=C2CCCC3)c1 (centres undefined)		inactive: 1.11%
COc1ccc(N(CC(=O)NC2CCCC2)C(=O)Cn2nnc(-c3ccc(C)o3)n2)c(OC)c1	inconclusive [inhibitor, single point]	
COc1ccc(C(CNC(=O)Cc2ccc(Cl)c(Cl)c2)N2CCCCC2)cc1 (centres undefined)	inconclusive [inhibitor, partial curve]	
CCc1ccc(OCC(=O)OC(C)C(=O)Nc2ccc(Cl)cn2)cc1 (centres undefined)	inconclusive [inhibitor, partial curve, poor fit]	
COc1ccccc1Nc1ncnc2c1c(C)c(C)n2CCCN(C)C		inactive: 0%
CC(C)Cc1nc(N2CCN(C(=O)c3ccccc3)CC2)c(C#N)c2c1CCC2	inconclusive [inhibitor, partial curve, poor fit]	
O=C1CC(NS(=O)(=O)c2cccs2)CN1c1ccc(F)cc1 (centres undefined)		inactive: 13.6%

SMILES	Potency	activity change, negative = inhibition
O=C1NCC(O)=C1C=NC12CC3CC(CC(C3)C1)C2	inconclusive [inhibitor, partial curve]	
CC(=O)n1cc([C@H]2C=C(C(=O)Nc3ccccc3)O[C@@H](OCc3ccc(CO)cc3)C2)c2ccccc21	active: 8.28 µM	
CCN(CC)c1ccc(/C=C(\C#N)C(=O)NCc2ccccc2)cc1	inconclusive [inhibitor, partial curve]	
Cc1cccc(-n2ccnc2SCC(=O)Nc2cccc(S(=O)(=O)NC3=NCCC3)c2)c1C	active: 10.4 µM	
O=C(COC(=O)c1ccco1)c1ccc(F)cc1		inactive: 12.6%
O=C(NC(=S)Nc1ccccc1N1CCCC1)c1cccc(F)c1	inconclusive [inhibitor, single point]	
COc1ccc(C[C@H](N)C(=O)N[C@H]2[C@@H](O)[C@H](n3cnc4c(N(C)C)ncnc43)O[C@@H]2CO)cc1	active: 0.104 µM	
COc1ccc(CCNc2nc(C)cc(C)c2C#N)cc1OC	inconclusive [inhibitor, single point]	
CC1CCCN(S(=O)(=O)c2cc(Cl)ccc2Cl)C1 (centres undefined)	inconclusive [inhibitor, partial curve, poor fit]	
Cc1c(CN(C)C)c2c(n1Cc1ccccc1)C(=O)c1ccccc1-2	inconclusive [inhibitor, single point]	
CC(OC(=O)C1CC(=O)N(Cc2ccco2)C1)C(=O)Nc1ccccc1[N+](=O)[O-] (centres undefined)		inactive: 4.76%
O=C(NNC1=Nc2cccc3cccc1c23)c1ccccc1Br	inconclusive [inhibitor, single point]	
C/C(=N\NC(=S)NC1CCCCC1)c1cccc(C(F)(F)F)c1	active: 3.7 µM	
COc1ccc(C(=O)N/N=C(\c2ccccc2)c2ccccn2)cc1	active: 2.62 µM	
O=C(C1CCC1)N1CCN(S(=O)(=O)c2ccc([N+](=O)[O-])cc2)CC1	inconclusive [inhibitor, single point]	
CCN1CCN(c2cc(C)c3cc(NC(=S)NCCN(C)C)ccc3n2)CC1	inconclusive [inhibitor, single point]	
Cn1c(=O)c2c(ncn2Cc2cccc(Cl)c2)n(C)c1=O	inconclusive [inhibitor, full curve, poor fit]	
COc1ccccc1CCNS(=O)(=O)c1cn(C)nc1C		inactive: -12.3%
Cc1ccccc1-n1nc(C)c2cc(C(=O)N3CCOCC3)sc21		inactive: -16.9%
Cn1c(=O)c2c(nc(N3CCOCC3)n2CCCNC2=NCCC2)n(C)c1=O		inactive: 19.1%
O=C(CCN1CCCCCC1)Nc1ccc2c(c1)OCCO2		inactive: -14.6%
CCCCn1c2c(c(=N)c3ccccc31)CCC2	active: 0.415 µM	
Cc1ccc(C)c(C(C)NC(=O)C2C3CCC(O3)C2C(=O)O)c1 (centres undefined)	inconclusive [inhibitor, full curve, poor fit]	

Source: PubChem BioAssay AID504832 (National Center for Advancing Translational Sciences (NCATS), 2011)
